# Inconclusive results, whose numbers are uncertain, are shown with a selection of clear calls. For part of these data: Potencies beside an inconclusive call are fits to weak or partial responses and may not hold up. Active and inactive are the calls of the source. Calls come from the whole dose curve; as a rule, active = well fitted curve in the direction sought with a large enough effect; inconclusive = small, poorly fitted or top-dose-only effect, or another doubt; inactive = no such curve, though single readings can be large; an effect the other way counts as inactive or inconclusive.
# Tests used:
# [1] = Primary qHTS for inhibitors of nuclear receptor binding SET domain protein 2 (NSD2) in an isogenic RCH-ACV NSD2 p.E1099K mutant (9B) (AID 1645876); note: nearly all actives have a fitted effect of over 70% in size
# CRL-7250 = normal cell line; experiment: Cytotoxic Profiling of Annotated Libraries Using Quantitative High-Throughput Screening (AID 1296008); conditions: Five cell lines viability, CellTiter-Glo ATP luminescence, 48-72 h; max response: stronger effect = lower value; note: nearly all actives have a fitted effect of over 60% in size; for max response: % is set by controls: 0 for no effect and ±100 for the full control effect
# How it was run: (§1)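 Compounds were pin-transferred onto cells and incubated 48 or 72 hr at 37 degree Celsius, 95% humidity. CellTiter-Glo was added, plates sat 10 min at room temperature, then ATP-coupled luminescence was imaged as the viability read-out.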
# HaCat = experiment: as above; conditions: Five cell lines viability, CellTiter-Glo ATP luminescence, 48-72 h; max response: stronger effect = lower value
# How it was run: as §1
# Es-2 = experiment: Primary qHTS to identify gynecologic anti-cancer compounds using libraries of approved drugs and bioactive compounds (AID 1345084); conditions: Gynecologic cancer cell panel viability, ATPlite luminescence, 48 h; series mostly up to 57.5 µM; note: nearly all actives have a fitted effect of over 55% in size; for activity change, negative = cytotoxicity: % is set by controls: 0 for no effect and ±100 for the full control effect
# How it was run: (§2)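 Measured: luminescence after ATPlite addition (15 min, RT). Exposure: 48 h, 37 C, 5% CO2.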
# Hek293T = experiment: as above; conditions: Gynecologic cancer cell panel viability, ATPlite luminescence, 48 h, control line for the selectivity index; activity change, negative = cytotoxicity: at 57.5 µM (top of the series) unless noted
# How it was run: as §2
# JEG-3 = experiment: as above; conditions: Gynecologic cancer cell panel viability, ATPlite luminescence, 48 h; series mostly up to 57.5 µM
# How it was run: as §2
# PA-1 = experiment: as above; conditions: Gynecologic cancer cell panel viability, ATPlite luminescence, 48 h; series mostly up to 57.5 µM
# How it was run: as §2
# SKOV3 = experiment: as above; conditions: Gynecologic cancer cell panel viability, ATPlite luminescence, 48 h; series mostly up to 57.5 µM
# How it was run: as §2
# Tov112D = experiment: as above; conditions: Gynecologic cancer cell panel viability, ATPlite luminescence, 48 h; series mostly up to 57.5 µM
# How it was run: as §2
# [2] = Primary qHTS for inhibitors of nuclear receptor binding SET domain protein 2 (NSD2) in an RCH-ACV wild type WT cells (2C) (AID 1645877); conditions: activity change, negative = cell killing: at 44.9 µM (top of the series) unless noted; note: nearly all actives have a fitted effect of over 70% in size
# [3] = Primary fluorescence-based thiol-reactive (MSTI) qHTS assay for identification of artifact compounds. (AID 1845221);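 note: thiol-reactive compounds lower the probe fluorescence signal; nearly all actives have a fitted effect of over 65% in size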
# How it was run: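 Reactivity toward the thiol probe MSTI (4 uM) is scored by fluorescence at Ex/Em 525/598 nm after 1 h at room temperature. Acetyl-MSTI and MSTI define the activity scale.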
# C33A = experiment: Primary qHTS to identify gynecologic anti-cancer compounds using libraries of approved drugs and bioactive compounds (AID 1345084); conditions: Gynecologic cancer cell panel viability, ATPlite luminescence, 48 h; series mostly up to 57.5 µM; note: nearly all actives have a fitted effect of over 55% in size; for activity change, negative = cytotoxicity: % is set by controls: 0 for no effect and ±100 for the full control effect
# How it was run: as §2
# CAOV3 = experiment: as above; conditions: Gynecologic cancer cell panel viability, ATPlite luminescence, 48 h; activity change, negative = cytotoxicity: at 57.5 µM (top of the series)
# How it was run: as §2
# OV90 = experiment: as above; conditions: Gynecologic cancer cell panel viability, ATPlite luminescence, 48 h; series mostly up to 57.5 µM
# How it was run: as §2
# CASKI = experiment: as above; conditions: Gynecologic cancer cell panel viability, ATPlite luminescence, 48 h; series mostly up to 57.5 µM
# How it was run: as §2
# Tov-21-G = experiment: as above; conditions: Gynecologic cancer cell panel viability, ATPlite luminescence, 48 h; activity change, negative = cytotoxicity: at 57.5 µM (top of the series) unless noted
# How it was run: as §2
# [4] = system: Zika virus NS2B-NS3 protease (unlinked complex); experiment: Primary screen GU Rhodamine qHTS for Zika virus inhibitors: Unlinked NS2B-NS3 protease assay (AID 1347159); note: nearly all actives have a fitted effect of over 60% in size
# How it was run: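 Buffer 10 mM Tris-HCl pH 8.0, 0.01% Tween 20. Unlinked protease 25 nM; compound preincubation 15 min, RT, protected from light. Substrate Rhod110, 1.5 microM; ~15% conversion in 15 min.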
# [5] = P-glycoprotein substrates identified in KB-8-5-11 adenocarcinoma cell line, qHTS therapeutic library screen (AID 1346987); note: nearly all actives have a fitted effect of over 65% in size
# How it was run: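 In this qHTS, P-gp-rich KB-8-5-11 cells received library compounds across a concentration range. Viability was quantified by luminescence after 72 h at 37 degree C.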
# HeLa = experiment: Primary qHTS to identify gynecologic anti-cancer compounds using libraries of approved drugs and bioactive compounds (AID 1345084); conditions: Gynecologic cancer cell panel viability, ATPlite luminescence, 48 h; activity change, negative = cytotoxicity: at 57.5 µM (top of the series); note: nearly all actives have a fitted effect of over 55% in size; for activity change, negative = cytotoxicity: % is set by controls: 0 for no effect and ±100 for the full control effect
# How it was run: as §2
# Potency is the fitted concentration of half-maximal effect; tags give direction and shape of the fitted curve.
structure (smiles),measurement,setting,value
CC(C)=CCC/C(C)=C/CC/C(C)=C/C(=O)OCC(=O)[C@@]1(O)CC[C@H]2[C@@H]3CCC4=CC(=O)C=C[C@]4(C)[C@H]3[C@@H](O)C[C@@]21C,Potency,[1],"inconclusive: 21.1 µM [inhibitor, single point]"
same,Potency,CRL-7250,"inconclusive: 29.9 µM [inhibitor, single point]"
same,Potency,HaCat,"inconclusive: 33.5 µM [inhibitor, single point]"
same,Potency,Es-2,"inconclusive: 31.6 µM [cytotoxic, single point]"
same,Potency,Hek293T,active: 35.5 µM
same,Potency,JEG-3,inactive
same,Potency,PA-1,"inconclusive: 28.2 µM [cytotoxic, single point]"
same,Potency,SKOV3,"inconclusive: 6.31 µM [cytotoxic, partial curve, poor fit]"
same,Potency,Tov112D,"inconclusive: 35.5 µM [cytotoxic, single point]"
C/C=C/C=C/C=C/C(=O)OC1C=C(C=O)C(O)(C(=O)O)C2(C)CCCC(C)(C)C12 (configuration not stated),Potency,[1],"inconclusive: 12.6 µM [inhibitor, partial curve, poor fit]"
same,Potency,[2],"inconclusive: 8.93 µM [inhibitor, partial curve, poor fit]"
same,Potency,[3],active: 5.82 µM
same,Potency,CRL-7250,"inconclusive: 7.96 µM [inhibitor, single point]"
same,Potency,HaCat,"inconclusive: 0.632 µM [inhibitor, partial curve, poor fit]"
same,Potency,C33A,inactive
CNC(=S)NS(=O)(=O)c1cc(CCNC(=O)c2cc(Cl)ccc2OC)ccc1OC,max response,CRL-7250,inactive: 3.39%
same,Potency,HaCat,"inconclusive: 16.4 µM [inhibitor, single point]"
same,Potency,CAOV3,"inconclusive: 39.8 µM [rising, single point]"
same,Potency,OV90,"inconclusive: 39.8 µM [rising, single point]"
same,Potency,PA-1,inactive
same,Potency,Tov112D,inactive
C[C@H](Oc1cc(-n2cnc3ccc(CN4CCN(C)CC4)cc32)sc1C(N)=O)c1ccccc1C(F)(F)F,Potency,CRL-7250,"inconclusive: 18.4 µM [inhibitor, single point]"
same,Potency,HaCat,"inconclusive: 16.4 µM [inhibitor, single point]"
same,Potency,C33A,active: 15.8 µM
same,Potency,CASKI,"inconclusive: 7.94 µM [cytotoxic, full curve, poor fit]"
same,Potency,Es-2,active: 11.2 µM
same,Potency,Hek293T,"inconclusive: 7.94 µM [cytotoxic, full curve]"
same,Potency,JEG-3,active: 3.16 µM
same,Potency,PA-1,active: 11.2 µM
same,Potency,SKOV3,"inconclusive: 3.16 µM [cytotoxic, full curve, poor fit]"
same,Potency,Tov-21-G,"inconclusive: 7.08 µM [cytotoxic, full curve]"
same,Potency,Tov112D,active: 7.94 µM
CC1=CCC2C(C)(C)CCC[C@]2(C)[C@@]12CC[C@](C)(CC(=O)O)O2 (some centres not stated),Potency,[4],"inconclusive: 11.2 µM [inhibitor, full curve, poor fit]"
same,Potency,[1],"inconclusive: 3.58 µM [inhibitor, partial curve, poor fit]"
same,max response,CRL-7250,inactive: -19.8%
same,max response,HaCat,inactive: -3.64%
same,Potency,CAOV3,"inconclusive: 10 µM [cytotoxic, partial curve, poor fit]"
same,Potency,SKOV3,"inconclusive: 5.01 µM [rising, single point]"
N=c1nc2n(cc1F)C1OC(CO)C(O)C1O2 (configuration not stated),Potency,[5],"inconclusive: 2.31 µM [inhibitor, full curve]"
same,Potency,[1],active: 0.0578 µM
same,Potency,CRL-7250,"inconclusive: 0.366 µM [inhibitor, full curve]"
same,Potency,HaCat,"inconclusive: 1.3 µM [inhibitor, full curve, poor fit]"
same,Potency,CAOV3,"inconclusive: 0.891 µM [cytotoxic, full curve, poor fit]"
same,Potency,Es-2,"inconclusive: 1.12 µM [cytotoxic, full curve]"
same,Potency,OV90,"inconclusive: 3.16 µM [cytotoxic, full curve]"
same,Potency,SKOV3,"inconclusive: 3.98 µM [cytotoxic, full curve]"
same,Potency,Tov112D,active: 1.41 µM
COC1=CC(=O)CC(C)C12Oc1cc(OC)cc(O)c1C2=O (configuration not stated),Potency,[5],inactive
same,Potency,[2],inactive
same,Potency,[3],"inconclusive: 5.32 µM [inhibitor, full curve]"
same,Potency,CRL-7250,"inconclusive: 20.6 µM [inhibitor, single point]"
same,max response,HaCat,inactive: 4.13%
same,Potency,CAOV3,inactive
same,Potency,SKOV3,"inconclusive: 0.794 µM [cytotoxic, single point]"
CC(C)(C#N)c1ccc(N2C(=O)OCc3cnc4ccc(-c5cnc6ccccc6c5)cc4c32)cc1,Potency,[4],"inconclusive: 79.4 µM [inhibitor, partial curve]"
same,Potency,CRL-7250,"inconclusive: 5.8 µM [inhibitor, full curve, poor fit]"
same,Potency,HaCat,"inconclusive: 0.92 µM [inhibitor, full curve]"
same,Potency,C33A,"inconclusive: 28.2 µM [cytotoxic, single point]"
same,Potency,CAOV3,"inconclusive: 15.8 µM [cytotoxic, partial curve]"
same,Potency,CASKI,"inconclusive: 11.2 µM [cytotoxic, partial curve]"
same,Potency,Es-2,"inconclusive: 3.16 µM [cytotoxic, full curve]"
same,Potency,HeLa,"inconclusive: 39.8 µM [cytotoxic, single point]"
same,Potency,Hek293T,active: 12.6 µM
same,Potency,OV90,"inconclusive: 28.2 µM [cytotoxic, single point]"
same,Potency,SKOV3,active: 2.82 µM
same,Potency,Tov-21-G,active: 10 µM
same,Potency,Tov112D,"inconclusive: 3.16 µM [cytotoxic, full curve]"
CC1=C(C(=O)O[C@@H]2O[C@H](COC3OCC(O)C(O)C3O)[C@@H](O)[C@H](O)[C@H]2O)C(C)(C)CCC1 (some centres not stated),Potency,[1],inactive
same,max response,CRL-7250,inconclusive: -40.2% [inhibitor]
same,Potency,HaCat,"inconclusive: 0.0089 µM [inhibitor, full curve]"
same,Potency,C33A,"inconclusive: 20 µM [cytotoxic, single point]"
same,Potency,Hek293T,inactive

# Source: PubChem BioAssay (NCATS)
